Some of the results follow.
How the values were obtained:
HSkMC = human skeletal muscle cells; assay: cytotoxicity call (relative viability < 0.9); conditions: 10 µM
HepG2 = assay: cytotoxicity call (relative viability < 0.9); conditions: 10 µM
S. aureus RN4220 = assay: growth inhibition call (relative growth <= 0.2); conditions: 50 µM

Row | SMILES | cytotoxicity call (HSkMC) | cytotoxicity call (HepG2) | growth inhibition call (S. aureus RN4220)
1 | CCS(=O)(=O)N1CC[C@]2(CC1)CN(Cc1ccccc1OC)[C@@H](CO)c1c2c2ccc(cc2n1C)OC | inactive | inactive | inactive
2 | C[C@H]1CN([C@@H](C)CO)C(=O)Cc2cc(NC(=O)Nc3cccc4ccccc34)ccc2O[C@H]1CN(C)C(=O)NC1CCCCC1 | inactive | inactive | inactive
3 | O=C(O)c1ccccc1C(=O)Nc1ccc(S(=O)(=O)Nc2nccs2)cc1 | inactive | inactive | inactive
4 | COc1ccc(NC(=O)N(C)C[C@@H]2Oc3cc(C#CCN(C)C)ccc3S(=O)(=O)N([C@H](C)CO)C[C@@H]2C)cc1 | inactive | inactive | inactive
5 | C[C@H]1CN([C@@H](C)CO)C(=O)c2cc(NC(=O)Cn3cnnn3)ccc2O[C@@H]1CN(C)Cc1ccccc1 | inactive | inactive | inactive
6 | Cc1noc(C)c1NC(=O)Nc1ccc2c(c1)CC(=O)N([C@@H](C)CO)C[C@@H](C)[C@@H](CN(C)Cc1ccc(-c3ccccc3)cc1)O2 | inactive | active | inactive
7 | C[C@H]1CN([C@@H](C)CO)C(=O)c2cc(NC(=O)Nc3ccc(C(F)(F)F)cc3)ccc2O[C@@H]1CN(C)C(=O)Nc1ccc(C(F)(F)F)cc1 | inactive | inactive | inactive
8 | C[C@@H]1CCCCO[C@H](CN(C)S(=O)(=O)c2ccc(F)cc2)[C@H](C)CN([C@H](C)CO)C(=O)c2cc(NC(=O)Nc3ccc(F)cc3)ccc2O1 | inactive | active | inactive
9 | C[C@@H]1CN([C@@H](C)CO)C(=O)c2cccc(NC(=O)C3CCOCC3)c2O[C@@H]1CN(C)Cc1ccc2c(c1)OCO2 | inactive | inactive | inactive
10 | COc1ccc(S(=O)(=O)N[C@@H]2C=C[C@H](CC(=O)NCCc3ccncc3)O[C@H]2CO)cc1 | inactive | inactive | inactive
11 | CO[C@H](CN(C)S(=O)(=O)c1ccc(Cl)cc1)[C@@H](C)CN([C@@H](C)CO)S(=O)(=O)c1cccc(Cl)c1 | inactive | inactive | inactive
12 | C[C@@H]1CCCCO[C@H](CN(C)CC2CC2)[C@@H](C)CN([C@H](C)CO)C(=O)c2cc(NC(=O)Nc3ccc(F)cc3)ccc2O1 | inactive | inactive | inactive
13 | CCc1cc(=O)oc2cc(C)c3c(-c4ccccc4)coc3c12 | inactive | inactive | inactive
14 | C[C@H](CO)N1C[C@H](C)[C@@H](CN(C)C(=O)CCCN(C)C)OCCCC[C@H](C)Oc2ccc(NC(=O)Nc3ccc(F)cc3)cc2C1=O | inactive | inactive | inactive
15 | C[C@H](CO)N1C[C@H](C)[C@H](CN(C)Cc2ccccn2)Oc2ncc(C#Cc3cccc(F)c3)cc2C1=O | inactive | inactive | inactive
16 | CC(C)NC(=O)N(C)C[C@H]1Oc2ccc(NS(=O)(=O)c3cccs3)cc2CC(=O)N([C@H](C)CO)C[C@@H]1C | inactive | inactive | inactive
17 | C[C@H](CO)N1C[C@H](C)[C@H](CN(C)S(=O)(=O)c2ccc(F)cc2)Oc2ncc(C#Cc3ccc(F)cc3)cc2C1=O | inactive | active | inactive
18 | CC(C)NC(=O)Nc1ccc2c(c1)C(=O)N([C@@H](C)CO)C[C@@H](C)[C@H](CN(C)C(=O)Nc1ccc3c(c1)OCO3)O2 | inactive | inactive | inactive
19 | CCN(CC)CCOC(=O)C(Cc1cccc2ccccc12)CC1CCCO1.O=C(O)C(=O)O (stereo unspecified) | inactive | active | inactive
20 | C[C@H]1CN([C@@H](C)CO)C(=O)c2cc(NS(=O)(=O)c3ccccc3)ccc2O[C@H]1CN(C)S(=O)(=O)c1ccccc1 | inactive | inactive | inactive
21 | C[C@@H]1CCCCO[C@@H](CN(C)C(=O)Nc2ccc(C(F)(F)F)cc2)[C@H](C)CN([C@@H](C)CO)C(=O)c2cc(NC(=O)Nc3ccc(C(F)(F)F)cc3)ccc2O1 | inactive | inactive | inactive
22 | NCC1CCC(C(=O)O)CC1 (stereo unspecified) | inactive | inactive | inactive
23 | NCCN1CCC(C(=O)O)CC1 | inactive | inactive | inactive
24 | COc1oc(C(=O)NC2CCCCC2)c(-c2ccc(Cl)cc2)c1S(=O)(=O)c1cccc(Cl)c1 | inactive | inactive | inactive
25 | C[C@H](CO)N1C[C@H](C)[C@@H](CN(C)S(=O)(=O)c2cccc(C#N)c2)OCc2cn(nn2)CCCC1=O | inactive | inactive | inactive
26 | C[C@@H]1CN([C@@H](C)CO)C(=O)c2cccc(NC(=O)C3CC3)c2O[C@H]1CN(C)S(=O)(=O)c1ccccc1 | inactive | inactive | inactive
27 | C[C@@H]1CCCCO[C@H](CN(C)C(=O)Cc2ccccc2)[C@@H](C)CN([C@@H](C)CO)C(=O)c2cc(NC(=O)Nc3ccc4c(c3)OCO4)ccc2O1 | inactive | inactive | inactive

Reference: the antibiotic and cytotoxicity screens of Wong et al. (2023)
